Test [1] has as its target T1, WDR33 residues 1–413 (subunit of the purified mPSF) (human) (UniProt Q9C0J8).
T1 sequence: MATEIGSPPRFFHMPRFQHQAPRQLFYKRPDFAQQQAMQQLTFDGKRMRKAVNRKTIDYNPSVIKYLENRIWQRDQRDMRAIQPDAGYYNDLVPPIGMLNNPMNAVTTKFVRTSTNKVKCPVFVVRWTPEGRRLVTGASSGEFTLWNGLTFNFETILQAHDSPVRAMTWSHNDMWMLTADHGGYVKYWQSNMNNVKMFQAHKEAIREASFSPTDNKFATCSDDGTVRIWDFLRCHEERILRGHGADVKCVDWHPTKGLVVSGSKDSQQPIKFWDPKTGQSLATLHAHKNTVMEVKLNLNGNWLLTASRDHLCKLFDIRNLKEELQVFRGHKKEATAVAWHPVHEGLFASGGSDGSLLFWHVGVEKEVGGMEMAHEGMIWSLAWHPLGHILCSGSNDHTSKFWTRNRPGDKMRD
Kind of test: cryo-EM structure; same reconstruction as a7: contacts between the subunits of mPSF, which were coexpressed in HEK293T and purified together.

Chains of the proteins cited; added tags and fusions are not shown. Lines headed by an entry give the natural chain unless they say otherwise; changes in a name come on top. A line that says so, or that is headed by a name, gives the form on record, which may keep a tag or linker.
TwinStrep-3C-CPSF30_isoform 2 (subunit of the purified mPSF) (O95639-2, form named): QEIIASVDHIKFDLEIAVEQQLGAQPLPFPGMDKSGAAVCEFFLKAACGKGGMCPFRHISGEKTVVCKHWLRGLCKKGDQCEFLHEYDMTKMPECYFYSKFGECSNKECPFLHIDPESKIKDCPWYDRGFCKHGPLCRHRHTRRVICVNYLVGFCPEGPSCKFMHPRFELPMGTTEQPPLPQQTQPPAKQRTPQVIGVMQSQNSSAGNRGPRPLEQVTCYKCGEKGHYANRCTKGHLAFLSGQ

Test [2] has as its target T2, CPSF160 (subunit of the purified mPSF) (human) (UniProt Q10570).
T2 sequence: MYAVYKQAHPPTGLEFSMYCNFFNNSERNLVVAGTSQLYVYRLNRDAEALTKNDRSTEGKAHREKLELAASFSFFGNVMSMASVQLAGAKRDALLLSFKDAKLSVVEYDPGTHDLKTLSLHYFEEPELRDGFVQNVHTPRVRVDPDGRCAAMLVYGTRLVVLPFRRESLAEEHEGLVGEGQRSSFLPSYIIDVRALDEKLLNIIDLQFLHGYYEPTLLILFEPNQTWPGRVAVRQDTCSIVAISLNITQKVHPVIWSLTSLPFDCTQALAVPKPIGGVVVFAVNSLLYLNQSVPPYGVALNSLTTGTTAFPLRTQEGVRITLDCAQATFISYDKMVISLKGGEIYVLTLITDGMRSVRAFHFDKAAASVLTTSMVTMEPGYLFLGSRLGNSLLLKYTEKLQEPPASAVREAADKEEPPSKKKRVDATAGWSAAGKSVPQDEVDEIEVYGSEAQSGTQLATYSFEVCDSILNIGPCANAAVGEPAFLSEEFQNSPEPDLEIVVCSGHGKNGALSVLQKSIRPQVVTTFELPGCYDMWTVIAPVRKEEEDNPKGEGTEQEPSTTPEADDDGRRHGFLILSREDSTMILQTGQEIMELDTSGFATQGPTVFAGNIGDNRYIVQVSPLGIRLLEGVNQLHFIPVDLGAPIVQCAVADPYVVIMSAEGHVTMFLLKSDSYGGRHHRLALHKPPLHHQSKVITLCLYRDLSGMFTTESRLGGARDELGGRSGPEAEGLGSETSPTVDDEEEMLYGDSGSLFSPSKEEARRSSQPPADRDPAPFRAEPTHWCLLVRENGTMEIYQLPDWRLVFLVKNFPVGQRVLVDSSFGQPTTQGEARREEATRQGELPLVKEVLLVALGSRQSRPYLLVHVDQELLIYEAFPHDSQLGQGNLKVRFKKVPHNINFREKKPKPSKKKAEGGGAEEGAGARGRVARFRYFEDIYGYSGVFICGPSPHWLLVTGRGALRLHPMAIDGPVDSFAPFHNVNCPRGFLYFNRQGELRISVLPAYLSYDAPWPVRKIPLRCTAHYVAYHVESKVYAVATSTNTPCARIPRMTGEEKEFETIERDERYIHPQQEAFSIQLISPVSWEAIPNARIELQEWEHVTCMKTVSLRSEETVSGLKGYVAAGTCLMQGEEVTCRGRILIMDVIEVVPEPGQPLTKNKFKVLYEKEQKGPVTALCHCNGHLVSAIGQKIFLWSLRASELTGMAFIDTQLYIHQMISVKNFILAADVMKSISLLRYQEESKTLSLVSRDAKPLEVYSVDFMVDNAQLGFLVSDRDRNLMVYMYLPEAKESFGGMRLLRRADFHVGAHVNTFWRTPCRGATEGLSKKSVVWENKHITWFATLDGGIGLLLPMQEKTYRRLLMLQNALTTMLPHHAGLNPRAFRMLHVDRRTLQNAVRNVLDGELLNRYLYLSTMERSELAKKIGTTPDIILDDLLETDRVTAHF
The description is as above.

The target in test [3] is mammalian polyadenylation specificity factor (mPSF: TwinStrep-3C-CPSF30_isoform 2, CPSF160, WDR33 residues 1–413, FIP1 residues 1–393) (human) (UniProt O95639+Q10570+Q9C0J8+Q6UN15). In words: cryo-EM structure; 1 µM purified mPSF mixed with 500× excess of synthesized PAPOAC peptide in EM buffer (50 mM HEPES-KOH pH 7.9, 150 mM KOAc, 1 mM Mg(OAc)2, 1 mM TCEP), 15 min at 4°C; global resolution 2.79 Å; both purified.

For test [4], the target named is PAPOA structured core (His8-3C-PAPOA residues 1–513-FLAG), wild type (human) (UniProt P51003). In words: pull-down; FLAG pull-down on α-FLAG M2 Protein G Dynabeads; FLAG-tagged PAPOA core 2.5 µM as bait, FIP1 25 µM (10× excess); 20 mM HEPES-NaOH pH 7.5, 150 mM NaCl, 5 mM MgCl2, 0.01% NP-40 substitute, 4°C; Coomassie-stained SDS-PAGE; both purified.
Test [5] has as its target T3, PAPOA structured core (His8-3C-PAPOA residues 1–513-FLAG) H487E K489E (human) (UniProt P51003).
T3 sequence: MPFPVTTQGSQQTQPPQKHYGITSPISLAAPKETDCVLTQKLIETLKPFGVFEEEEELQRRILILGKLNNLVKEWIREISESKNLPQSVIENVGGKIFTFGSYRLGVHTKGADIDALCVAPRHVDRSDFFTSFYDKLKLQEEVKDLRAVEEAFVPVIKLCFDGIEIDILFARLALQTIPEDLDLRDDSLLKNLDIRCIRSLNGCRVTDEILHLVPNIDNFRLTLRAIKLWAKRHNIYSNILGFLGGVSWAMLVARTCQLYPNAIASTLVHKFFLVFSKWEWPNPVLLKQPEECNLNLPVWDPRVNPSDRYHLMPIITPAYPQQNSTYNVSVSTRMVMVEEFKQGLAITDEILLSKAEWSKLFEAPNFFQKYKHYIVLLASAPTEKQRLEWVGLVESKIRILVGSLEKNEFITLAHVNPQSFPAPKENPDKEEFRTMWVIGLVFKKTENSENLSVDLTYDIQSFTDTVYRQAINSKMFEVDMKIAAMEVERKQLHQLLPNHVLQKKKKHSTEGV
Described as above.

For test [6], the target named is full-length poly(A) polymerase (PAPOA) expressed in HEK cells (human) (UniProt P51003). Kind of test: pull-down; HEK cell lysates, PAPOA and FIP1 cotransfected (plasmid ratio 1:5); MagStrep type3 XT beads, KingFisher, room temperature; 20 mM HEPES-NaOH pH 7.5, 150 mM NaCl, 5 mM MgCl2, 0.1% NP-40 substitute.
Test [7] concerns the target PAPOA structured core (His8-3C-PAPOA residues 1–513-FLAG), wild type (human) (UniProt P51003). Kind of test: pull-down; data not shown: competition with FIP1 prebound to the PAPOA core and PAPOAC added in large excess; both purified.

Residue numbers refer to the chain shown, from its start. Names and notes keep the numbering of the source. No constants are given. Whether binding was seen depends on the method and setting. For part of these data: Binding seen in cells or lysates may run through a third protein. Some binding calls cover weakened binding; strength is not graded here. For part of these data: Where a sequence is shown, tags or fusion partners need not be part of it.

Consider “TwinStrep-3C-CPSF30_isoform 2 (subunit of the purified mPSF) (from UniProt O95639-2 2-244)”, for which the binding entry in test [1] and in test [2] was “binds” each time.

B1: minimal PAPOAC construct (His6-MBP-3C-PAPOA residues 720–745), wild type (peptide)
chain: DLSDIPALPANPIPVIKNSIKLRLNR
notes: human poly(A) polymerase alpha (PAPOA), C-terminal motif, residues 720-745; A 3C site follows MBP; no cleavage step is described in the purification; also called PAPOA C terminus; PAPOAC peptide; source: E. coli BL21 STAR (DE3) pRARE, purified (Amylose resin, Superdex 200)
As to B1, the binding entry in test [3] is “binds weakly”.

B2: minimal FIP1 construct (His6-MBP-3C-FIP1 residues 80–113) D94R V98R (peptide, UniProt Q6UN15 80-113)
chain: ETEDDSDSDSDDDERDVHRTIGDIKTGAPQYGSY
As for B2, in test [4], the binding entry is listed as “no binding (tested: 25 µM FIP1 with 2.5 µM PAPOA)”.

B3: minimal FIP1 construct (His6-MBP-3C-FIP1 residues 80–113), wild type (peptide, UniProt Q6UN15 80-113, looked up)
chain: B2 chain with R15D, R19V
notes: A 3C site follows MBP; no cleavage step is described in the purification; also called minimal FIP1 peptide; source: E. coli BL21 STAR (DE3) pRARE, purified (Amylose resin, Superdex 200)
For the molecule B3, the binding entry in test [5] is on record as “no binding (tested: 25 µM FIP1 with 2.5 µM PAPOA)”.

B4: longer FIP1 construct (residues 1–393), wild type, expressed in HEK cells (domain or fragment, UniProt Q6UN15 1-393)
chain: MSAGEVERLVSELSGGTGGDEEEEWLYGGPWDVHVHSDLAKDLDENEVERPEEENASANPPSGIEDETAENGVPKPKVTETEDDSDSDSDDDEDDVHVTIGDIKTGAPQYGSYGTAPVNLNIKTGGRVYGTTGTKVKGVDLDAPGSINGVPLLEVDLDSFEDKPWRKPGADLSDYFNYGFNEDTWKAYCEKQKRIRMGLEVIPVTSTTNKITAEDCTMEVTPGAEIQDGRFNLFKVQQGRTGNSEKETALPSTKAEFTSPPSLFKTGLPPSRNSTSSQSQTSTASRKANSSVGKWQDRYGRAESPDLRRLPGAIDVIGQTITISRVEGRRRANENSNIQVLSERSATEVDNNFSKPPPFFPPGAPPTHLPPPPFLPPPPTVSTAPPLIPPPGF
As to B4, the binding result in test [6] is listed as “binds”.

B5: longer FIP1 construct (residues 1–393) with the FIP1-charged mutations D94R V98R, expressed in HEK cells (domain or fragment, UniProt Q6UN15 1-393)
chain: B4 chain with D94R, V98R
For B5, in test [6], the binding entry was “no binding”.

B6: FIP1 N terminus (His6-MBP-3C-FIP1 residues 1–113), wild type (domain or fragment, UniProt Q6UN15 1-113)
chain: MSAGEVERLVSELSGGTGGDEEEEWLYGGPWDVHVHSDLAKDLDENEVERPEEENASANPPSGIEDETAENGVPKPKVTETEDDSDSDSDDDEDDVHVTIGDIKTGAPQYGSY
Regarding B6, the binding entry in test [7] and in test [4] was “binds” in each case.

For the origin of these results see paper PMC11182016, “Molecular basis of human poly(A) polymerase recruitment by mPSF” (RNA, 2024).
